Source: article PMC9911399, “Two distinct binding modes provide the RNA-binding protein RbFox with extraordinary sequence specificity”
Changes are numbered by the printed parent chain; changes in the protein carry UniProt numbers. Some of the results follow.

T1: RBFOX1 RRM (Homo sapiens, UniProt Q9NWB1 109-208)
T1 sequence: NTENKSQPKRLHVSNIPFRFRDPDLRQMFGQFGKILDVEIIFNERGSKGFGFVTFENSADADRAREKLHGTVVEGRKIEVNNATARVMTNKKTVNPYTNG

B1: GGGGUGU (DNA:RNA)
RNA: GGGAGACCGGAAUUCAGAUUGUCCGGGGUGUUUAAAUCCCGUCGUAGCCACCA
DNA 1: CAATCTGAATTCCGGTCTCCC
DNA 2: TGGTGGCTACGACGGGATT
B2: AACUUAA (DNA:RNA)
RNA: B1 RNA with G25A, G26A, G27C, G28U, G30A, U31A
DNA 1: CAATCTGAATTCCGGTCTCCC
DNA 2: TGGTGGCTACGACGGGATT
B3: GCUAUUU (DNA:RNA)
RNA: B1 RNA with G26C, G27U, G28A, G30U
DNA 1: CAATCTGAATTCCGGTCTCCC
DNA 2: TGGTGGCTACGACGGGATT
B4: CUUCGUG (DNA:RNA)
RNA: GGGAGACCGGAAUUCAGAUUGUCCCUUCGUGUUAAAUCCCGUCGUAGCCACCA
DNA 1: CAATCTGAATTCCGGTCTCCC
DNA 2: TGGTGGCTACGACGGGATT
B5: GCGAAUU (DNA:RNA)
RNA: B1 RNA with G26C, G28A, U29A, G30U
DNA 1: CAATCTGAATTCCGGTCTCCC
DNA 2: TGGTGGCTACGACGGGATT
B6: UGUAUUG (DNA:RNA)
RNA: B4 RNA with C25U, U26G, C28A, G29U
DNA 1: CAATCTGAATTCCGGTCTCCC
DNA 2: TGGTGGCTACGACGGGATT
B7: CCAAUUU (DNA:RNA)
RNA: B4 RNA with U26C, U27A, C28A, G29U, G31U
DNA 1: CAATCTGAATTCCGGTCTCCC
DNA 2: TGGTGGCTACGACGGGATT
B8: CUGUACU (DNA:RNA)
RNA: B4 RNA with U27G, C28U, G29A, U30C, G31U
DNA 1: CAATCTGAATTCCGGTCTCCC
DNA 2: TGGTGGCTACGACGGGATT
B9: AAGGACA (DNA:RNA)
RNA: B1 RNA with G25A, G26A, U29A, G30C, U31A
DNA 1: CAATCTGAATTCCGGTCTCCC
DNA 2: TGGTGGCTACGACGGGATT
B10: ACCACAG (DNA:RNA)
RNA: B4 RNA with C25A, U26C, U27C, C28A, G29C, U30A
DNA 1: CAATCTGAATTCCGGTCTCCC
DNA 2: TGGTGGCTACGACGGGATT
B11: GGUUGGU (DNA:RNA)
RNA: B1 RNA with G27U, G28U, U29G
DNA 1: CAATCTGAATTCCGGTCTCCC
DNA 2: TGGTGGCTACGACGGGATT
B12: CUUCUCA (DNA:RNA)
RNA: B4 RNA with G29U, U30C, G31A
DNA 1: CAATCTGAATTCCGGTCTCCC
DNA 2: TGGTGGCTACGACGGGATT
B13: GAGAUUA (DNA:RNA)
RNA: B1 RNA with G26A, G28A, G30U, U31A
DNA 1: CAATCTGAATTCCGGTCTCCC
DNA 2: TGGTGGCTACGACGGGATT
B14: GAAGUUU (DNA:RNA)
RNA: B1 RNA with G26A, G27A, G30U
DNA 1: CAATCTGAATTCCGGTCTCCC
DNA 2: TGGTGGCTACGACGGGATT
B15: UCAAUCC (DNA:RNA)
RNA: B1 RNA with G25U, G26C, G27A, G28A, G30C, U31C
DNA 1: CAATCTGAATTCCGGTCTCCC
DNA 2: TGGTGGCTACGACGGGATT
B16: UUAAAGC (DNA:RNA)
RNA: B4 RNA with C25U, U27A, C28A, G29A, U30G, G31C
DNA 1: CAATCTGAATTCCGGTCTCCC
DNA 2: TGGTGGCTACGACGGGATT
B17: CCACUCG (DNA:RNA)
RNA: B4 RNA with U26C, U27A, G29U, U30C
DNA 1: CAATCTGAATTCCGGTCTCCC
DNA 2: TGGTGGCTACGACGGGATT
B18: UAGGAGC (DNA:RNA)
RNA: B1 RNA with G25U, G26A, U29A, U31C
DNA 1: CAATCTGAATTCCGGTCTCCC
DNA 2: TGGTGGCTACGACGGGATT
B19: GAUGUAU (DNA:RNA)
RNA: B1 RNA with G26A, G27U, G30A
DNA 1: CAATCTGAATTCCGGTCTCCC
DNA 2: TGGTGGCTACGACGGGATT
B20: UAUGCGC (DNA:RNA)
RNA: B1 RNA with G25U, G26A, G27U, U29C, U31C
DNA 1: CAATCTGAATTCCGGTCTCCC
DNA 2: TGGTGGCTACGACGGGATT
B21: ACAAAGG (DNA:RNA)
RNA: B4 RNA with C25A, U26C, U27A, C28A, G29A, U30G
DNA 1: CAATCTGAATTCCGGTCTCCC
DNA 2: TGGTGGCTACGACGGGATT
B22: CCGGUCG (DNA:RNA)
RNA: B1 RNA with G25C, G26C, G30C, U31G
DNA 1: CAATCTGAATTCCGGTCTCCC
DNA 2: TGGTGGCTACGACGGGATT
B23: ACAAUGA (DNA:RNA)
RNA: B1 RNA with G25A, G26C, G27A, G28A, U31A
DNA 1: CAATCTGAATTCCGGTCTCCC
DNA 2: TGGTGGCTACGACGGGATT
B24: GCUCAUA (DNA:RNA)
RNA: B4 RNA with C25G, U26C, G29A, G31A
DNA 1: CAATCTGAATTCCGGTCTCCC
DNA 2: TGGTGGCTACGACGGGATT
B25: AUUUAAA (DNA:RNA)
RNA: B4 RNA with C25A, C28U, G29A, U30A, G31A
DNA 1: CAATCTGAATTCCGGTCTCCC
DNA 2: TGGTGGCTACGACGGGATT
B26: ACGUCCC (DNA:RNA)
RNA: B1 RNA with G25A, G26C, G28U, U29C, G30C, U31C
DNA 1: CAATCTGAATTCCGGTCTCCC
DNA 2: TGGTGGCTACGACGGGATT
B27: AAAGAUG (DNA:RNA)
RNA: B4 RNA with C25A, U26A, U27A, C28G, G29A
DNA 1: CAATCTGAATTCCGGTCTCCC
DNA 2: TGGTGGCTACGACGGGATT
B28: GGAGUUC (DNA:RNA)
RNA: B1 RNA with G27A, G30U, U31C
DNA 1: CAATCTGAATTCCGGTCTCCC
DNA 2: TGGTGGCTACGACGGGATT
B29: GGCCCGC (DNA:RNA)
RNA: B1 RNA with G27C, G28C, U29C, U31C
DNA 1: CAATCTGAATTCCGGTCTCCC
DNA 2: TGGTGGCTACGACGGGATT
B30: UCGUCGC (DNA:RNA)
RNA: B1 RNA with G25U, G26C, G28U, U29C, U31C
DNA 1: CAATCTGAATTCCGGTCTCCC
DNA 2: TGGTGGCTACGACGGGATT
B31: GGCGCCG (DNA:RNA)
RNA: B1 RNA with G27C, U29C, G30C, U31G
DNA 1: CAATCTGAATTCCGGTCTCCC
DNA 2: TGGTGGCTACGACGGGATT

What follows are binders tested against T1, RBFOX1 RRM (assay: EMSA; HiTS-Eq, 1 nM pool, 10 min; buffer printed only for the single-RNA assays: 10 mM Tris pH 7.5, 150 mM NaCl, 3.4 mM EDTA, 0.001% NP-40, 30 C). Conditions: tags: His6 N-terminal (pET28a); label: 5' 32P.
Method in brief: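 These values rest on relative association constants, computed from read-count changes of each RNA species versus the control reaction and normalised to the cognate motif. Reads came from free RNA recovered by 8% native PAGE after purified RbFox RRM (wild type or mutant) at increasing concentrations was equilibrated for 10 min in 50 µL with 1 nM of a 5′-radiolabelled pool with 7 randomized nucleotides and DNA-annealed flanks.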

Binder	binding signal
B1	0.038 KA relative to UGCAUGU
B2	0.00138 KA relative to UGCAUGU
B3	0.00716 KA relative to UGCAUGU
B4	0.0173 KA relative to UGCAUGU
B5	0.00833 KA relative to UGCAUGU
B6	0.0262 KA relative to UGCAUGU
B7	0.00464 KA relative to UGCAUGU
B8	0.00801 KA relative to UGCAUGU
B9	0.00245 KA relative to UGCAUGU
B10	0.00163 KA relative to UGCAUGU
B11	0.00961 KA relative to UGCAUGU
B12	0.00592 KA relative to UGCAUGU
B13	0.00731 KA relative to UGCAUGU
B14	0.0129 KA relative to UGCAUGU
B15	0.00161 KA relative to UGCAUGU
B16	0.00615 KA relative to UGCAUGU

Binder	binding signal
B17	0.00163 KA relative to UGCAUGU
B18	0.00606 KA relative to UGCAUGU
B19	0.0153 KA relative to UGCAUGU
B20	0.0181 KA relative to UGCAUGU
B21	0.00517 KA relative to UGCAUGU
B22	0.00821 KA relative to UGCAUGU
B23	0.00366 KA relative to UGCAUGU
B24	0.00411 KA relative to UGCAUGU
B25	0.00233 KA relative to UGCAUGU
B26	0.00396 KA relative to UGCAUGU
B27	0.00956 KA relative to UGCAUGU
B28	0.025 KA relative to UGCAUGU
B29	0.0121 KA relative to UGCAUGU
B30	0.0113 KA relative to UGCAUGU
B31	0.00841 KA relative to UGCAUGU
